Source: publication PMC10726135
Some of the results follow. At the low end of the ranking the order means little. The protein was read in a cell extract, so binding may be indirect.

The sequences below were run against T1, HNF4alpha8 (COS-7 nuclear extract) (UniProt P41235-5) (assay: protein-binding microarray). Details: COS-7 nuclear extract on double-stranded Agilent 4x180k PBM; binding buffer, salt, pH and temperature not given; high values mean tight binding; double strand, one strand shown; sequences stand for … in …GCCTAGGGAGATTAGAGTATCGGTCGA.
T1 sequence: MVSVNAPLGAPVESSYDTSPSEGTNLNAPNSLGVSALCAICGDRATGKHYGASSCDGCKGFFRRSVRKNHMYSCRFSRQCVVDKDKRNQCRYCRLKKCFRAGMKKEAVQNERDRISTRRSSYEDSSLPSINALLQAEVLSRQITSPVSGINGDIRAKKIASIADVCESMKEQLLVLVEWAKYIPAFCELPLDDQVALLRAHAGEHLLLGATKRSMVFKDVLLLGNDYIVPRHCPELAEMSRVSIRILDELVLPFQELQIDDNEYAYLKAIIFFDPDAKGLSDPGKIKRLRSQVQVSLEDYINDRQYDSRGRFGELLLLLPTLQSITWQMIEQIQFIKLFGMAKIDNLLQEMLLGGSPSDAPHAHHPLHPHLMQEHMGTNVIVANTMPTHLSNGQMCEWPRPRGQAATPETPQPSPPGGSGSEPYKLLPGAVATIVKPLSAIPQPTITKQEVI

Sequence	binding signal (log2 normalized intensity)
TTATCTATACAGTTGTGGGTATGTCTGTAG	1.49
ATCATTTCTACAGGGTCAAGCAAACAAATG	0.669
AAGCTCTGAAAGCTTCAAAGGACAGGCTGA	-1.38
TGCCCATCTGGTGGTGGTTCTTGTTTCATT	1.78
TTCTTGTTAACCTCCTATGATCTTTCATTC	1.85
AAACAGGTGAAAGATAAGGGCTAGTTCATT	-1.34
CAGGCGCCGACTGCCAGGAGGGGACTTCAA	-1.3
GTCATAAGAAACATTTTACAACCTATTCTC	-1.31
AATATGGTCCCTGACCTTAAGGAGTGTCCT	2.36
GCTAAAACCCTGGCCACTCCCTGATAGAGA	-1.33
ATCTGAGGTGGTCCAGGGCCCTTACCATCA	-1.36
CGTGCGGTCGGGCGCGCGGGCCGGGAGGGG	-0.997
GATTAAACAAACAAGTTTTATTGGGGGGTC	1.96
ATAGAACACTTGTACATACTTTTGGGGTAT	1.11
GAGGGTGGTGGGTGAAGGATGGAATGCTGA	-1.29
TGAAGAAAGATCACACAAATGGATCTTTCT	-1.3
TTCAACCTCTTTCTCTTTGATGTAAATTTT	1.57
AAACATCCTGCCTAACCACCTGACCACAAC	-1.26
ACTTGTGGTATGTTTGGATTGGGCAATGAC	1.81
CAAATCATTACTATCTGCTGGGGGCTGGGC	-0.387
GCCTCTAGCCCAATATTTGCTTACCAAACT	-1.27
GCCTGGCGTGGATTCCGAGCGTTGGTGTCT	0.885
TGGTTTTATGGTGTCTTATCTTCCTCTGGC	1.91
CAGGTCTTTCTGGAGATAACAGTGTAAGGA	0.953
GTGAGGGAGAAGTTTTATGGCAGGGTCGGA	1.52

Sequence	binding signal (log2 normalized intensity)
TCCAGCCTCCAGCTACTCACTCTTCCCAAA	-1.34
ATTGACCCTTAGGCCAAGGCTTACTGGCGC	0.384
CAGTGTGGCAGGTGAAATAGCTGAACTATT	1.34
CCCCGCGCCGCGTCCCTTCCCCCGGCGCAG	4.1
CTCTCTTTGTGAAATGGGACCCAACTTTTG	0.822
TGCGGCTCTTCTGATCGTGAGAAGAGGACT	0.434
GAAACGGGTTCAAGCTTGATCCAGGATCCT	-0.823
GACAGAAGGGAGAGTCCAAGATACCACTGA	-1.35
GCTTAATCTCTGCTCATAATGCCAGGCAGG	0.304
GGTCAATGTGCACATTCGAAGTTTTGCTCC	1.65
AATGATCTGGTCAGACTGAGAGAGCAGGGC	-1.26
AGAAATGTTATCTCAGTAGACTAACGTATG	0.588
GCATCGTGGGTATTTGGGGAGTTCTTTCTG	1.34
TCAATGTCCCCTTAGGAATAGTATCAGGCA	1.24
ATCTGCTGCCCTTCCCTCCACTATTGTCCT	2.86
AGGACCATGTTCTCCTAAAGTGACTAGAGA	-1.37
AATGGACCCAAGCGGCCATTTACTGACTAA	-0.973
TGAGAGGTGCTGCATGGGCTGAGCCCAGCA	-1.3
CATGAGAAACATCCACATGTGGGTCCAAAG	3.23
AACAGGGCTCCTGTTCAGCATAGTCCTGCC	-1.37
CCGCCTCTTGGCCTCCCCCTTCTGAGTCTC	2.71
TGGATCGCTTGGCTCAGGCCGGTTGGCCAG	-0.646
CAGGACTGCGTAACTTACAGTGCACTTTGA	5.6
TATCGCCCTTCTGTCAAGTCCAAAGTTCTT	5.2
AGAGAAGGGCTGAAGGTTAATTCGCTCATC	0.837

Sequence	binding signal (log2 normalized intensity)
CCTATCAGCTACTCATGCTTTCTTATCTGG	0.48
GACCGAGGGTTAAGCTCATGCTTTCATCTC	-0.935
AATTGTTCAACATGGTGACTCTAGTCAATG	1.06
CTGGAAAGGGCTTCAGAGTCGATAGTCCAA	1.14
CATCAGATACCTACTCTGCTCTTCTCTCTG	-1.22
AATGCAGCCTTATCTTCCAGCCCTGTCTCT	-0.992
TAGTGCCTGGATCTTGGAACAGGTCTCAGG	0.797
GTGGACTTTGCCTGCCCATCCCGTGGACTC	4.49
CCCACCTTGTTATCTTGTCTCTTCTTGTAC	2.13
AACTGAGTTACGTAATGTGTCCCCACATCT	2.15
ATCCCCGCTCCCCTCCCCCACCCGCGGTCC	6.49
CTCGGGGCCAGGTGGGCTGCTCCCAGTGCC	-1.23
GAAGGTTATTAGTGATAAGCAGAGGATGGG	-1.1
GATCAGGCAAGTGGTCATGTAGGTGTCTCA	1.09
CCTGGTGGACCCAGCTGGTAAGTGCAAGGC	1.15
AAGGAGAAGGCTCCCAAGGTATCCTCCTAG	-1.41
TCCCTTCCCGGGGAGTCCTGGGCGTTGCTC	0.266
CAGCCCAGTGGTAATGGAGCTGAAACTATA	-1.22
AGGGATTTCAGTGCCCTCATAAGAGACTTT	2.22
AAGGAAGGAGGGAGGCAGGGAGACAACCTG	-1.25
CTTCATTCCCGAGTGCCTTTAGAGGGCAAG	2.07
CAAACAAGAAAGTTGAGGTGAATACACAGC	-1.27
GCTCTTTACCCCTGCAAGGATTGATCAGCA	2.1
CTTTATGACTTGGGTGCACCAATGATCAAA	1.2
CATAGACCCTGTTGGTTTCTGGGATTTGTA	1.07

Sequence	binding signal (log2 normalized intensity)
TCTGATGTACCCAGCACTGTCAGCAGGGGG	-1.3
TGTCGCTATCTTATCTGGGCCAGGTATTTG	1.21
CTTGTGGCTGGGTGATCTGGGAAACAGGCT	-1.33
ATTCCCTCCAGCAGGGGATGCCCTTTGACC	9.35
GGACTTTGGCCCTCAGCCCAATGTGGTAGG	6.09
TAGTCTCCTATCAAGAAAATAGAAGTGCTA	-1.27
TTTTTTCTCTCCCCTTTTAATACAAGTATT	1.92
TAGGTTTGTGAGTCCAAAGGTCAGCCGGGG	8.36
CACCATTCCTGGCAGCCAGCTGGTTTGCCT	-1.07
GCTAAGATGTAGCAAGAATGTAAATAGCTA	-1.25
CTGACCTTAGACCCTCAGGCTCCACCGGAT	2.04
GCGTGAGTTTGCTGTCTTGACTTGGTTCGG	1.41
TGCCTCTCTGAACCTTCCTTAGAGAATGCT	-1.28
CAGGAATGTTTCCTCTCCCAGCCCCTAGCC	2.6
ACTTTGAAGGCCCCAATTGCCAAGGGGGTG	-1.25
GGTATTCTTTCATCCCTCTCCCGCCTCTTG	1.35
AGGGAAGAGGCAAGGAAAGATAAATAGTGA	-1.28
TGGTTTTGTAAATATAGGATCATGTTGTCT	1.84
TGTTGGGGAATCAGTCCATAAATACACAAT	-1.04
TAATGAGTGCTATCCCTGGAGCCTTAGAAG	-1.46
AACGGTTCAAAGGACAGACTTTGGACCTGG	7.98
TCCACACCCCCCACTCTTCATATCTTCCCA	3.03
AAGGCCAAACACGGACAGGCAGGCCCAGAC	-1.41
TACATTGCATATCAGCATGGCTGCAGAGAA	-1.33
ATACTCCAAGCCTAGAAAAACAACTAAAGG	-1.3

Sequence	binding signal (log2 normalized intensity)
ATCGGCTTCCCTGGTCCTCAGGCCTTTGGA	1.15
CCCTACGTAAATGCACGGAAGCCTTCCCCG	-1.49
GAGTTTAAGGTTGTACTTTGGAGTTTACTT	4.42
GAAAAGAAAAAACCCATCCACCCATCCAAA	2.76
AACCTTTGATCATTCCTGCACAGGACTGCT	3.55
TCACCCGATAAGCTGACCCCAAAACCCCCA	6.1
ACACAAAGGCAGAGCACTAAATCTCTCCTA	-1.39
AGTCCCAATCCCCCATCTATTTACAAAAGA	2.89
TAAAACTAGGAGAGTCCGGGGCAAACAAGG	-1.09
AACAACTGCCACTTATTGTGTTATGTACTT	1.82
AGTTGGTGTTTTCCGGGGGCGGTTTTTCCA	1.54
CCCTTCGCTAGAGCAAATACAGCACTCAAA	-1.31
AAAAAATGGGCAAAGGACAATAATGAATAA	-0.651
AGCAGGTTATCTAATGGAGAGGATGGGGAC	-1.23
CTGCATTCCAGCTCAATCAAGGACTGGGCT	-1.09
GGGGGAGGGAGATAGAGAAAGAAAAAGTAC	-1.16
CTCTTGCTTCACAGCCCTCCAACTATGCTA	-0.519
CTCCTAAAGGCAGCCCCTTATCAGGAGAGG	-1.17
TAGCCTTATCTCAGATGAGACTTTGGACTT	8.64
ATGACCTTTACCCCCATTTGGTAATGGGCC	5.46
TTTATAGGCTAGAATGGAAACCAATAACTG	-1.35
ATTATCTGCTTTTATGACCTTTGACTGCAG	7.32
GAGGTGGAAGTGGCAGATTAGAGACCTCTA	-0.0165
ATTGAAGTTACGTATTTTTGCCAAGGATAT	0.78
ATGGAGATGAGAAACTTATTGTGAACTGGA	1.08

Sequence	binding signal (log2 normalized intensity)
ACCAGGGCAGGGAAAGGGGGTTTGCAACCT	-1.37
AGCCATTTATCAGGGTAATGAGTGCTATCC	0.957
TCCTACCTTTCCCCTAAAGGAGGCAAGGTC	0.783
GTTGAGAACTGAGTTTAGAATTTGAACTAT	3.68
TGGCATACTACAGAAATCTTTAAGTGCATT	0.375
TGTGGAGGTCTACCAGGAATATTGCCCCCT	5.57
TACCAAAGCCATGGCTCCAACCCGATTCTG	-1.36
ACTACATTTCCAAGACCTCTTTGCGGATAG	-0.337
CCCCACCCTCCCACGCACTCGCCTGACTCC	3.85
GCAAGCTCCTGGTTGGGGCCTCCCTCCGTG	-1.42
CTCATTAATCATCCGTCACCCAGACAGACT	-1.18
GTAAGGGGAGGAGCTGAAACAGTCTGATTC	-1.33
ATCCACCCATCCAAAGGTCAGCAATCTCAA	3.45
CATCACCTAACTTGTGGCTGGGTGATCTGG	1.34
TCTCTCATGCTATGCTCTCTCTCCACCTGG	-0.806
CTCTTTTTTCTTGTTGACTTTCCTATTGTC	1.88
AGAGAGAGAGAATGACCCTTGCTTGACCCA	4.02
AGGCAAACATAAACTCAGAGTCAAATCCCC	0.536
CCCCTAAAGGAGGCAAGGTCCAAACTTCTC	2.81
AGAAGGGGTCAGGTAAGACAGCCTCCTGAA	-1.25
